According to US11384076B2, “Synthesis, pharmacology and use of new and selective FMS-like tyrosine kinase 3 (FLT3) FLT3 inhibitors” (UNIVERSITÄT REGENSBURG, priority 2017, dated 2022):

Tests used:
[1] = test system: MV4-11 cells; experiment: Proliferation assay against human AML cells; type: cell-based
Method: FIGS. 2A and 2B: Proliferation assay of selected compounds of the novel set of TKi against human AML cells (MV4-11 cells).
The pharmacological properties of the novel compounds against FLT3-ITD-positive human MV4-11 cells (FIG. 2A+B) were evaluated. Most of the investigated compounds show promising effects in this assay.

[2] = test system: MV4-11 cells; experiment: Cell cycle distribution / subG1 fraction, PI staining, flow cytometry; type: cell-based, human; settings: 2 nM, 5 nM or 10 nM, 48 h
Method: FIG. 3: The human FLT3-ITD positive cell line MV4-11 was stimulated with different FLT3i (2 nM, 5 nM or 10 nM) for 48 h (n=2). Cells were stained with PI and measured by flow cytometry. Data were analyzed with FACS Diva software (Version 7.0, BD Biosciences GmbH, Heidelberg, Germany).
(§1) After incubation, cells were harvested on ice and fixed in 80% ethanol at −20° C. for at least 1 h. Next, the cells were incubated with RNase for 30 min at room temperature, thereafter stained with propidium iodide (PI), and measured immediately with a flow cytometer. PI intercalates into DNA. In the different phases of the cell cycle, cells incorporate various amounts of PI. This allows the quantification of the cell cycle phases. The subG1 population represents the fraction of apoptotic/necrotic cells, which contains only fragmented DNA (DNA content <2N).
The synthesized set of FLT3 inhibitors (FLT3i) was tested in the human FLT3-ITD expressing AML cell line MV4-11 (Buchwald, Pietschmann et al. 2010).

[3] = test system: Ba/F3 D835Y; experiment: Cell cycle / subG1 fraction in Ba/F3 mutants, flow cytometry; type: cell-based, murine; settings: 5 nM, 48 h
Method: Cells were stained with PI; cell cycle was analyzed by flow cytometry.
as §1
As described in the introduction there are several mutations next to ITDs that lead to reduce efficiency or to resistance against FLT3i treatment. The murine pro B cell line Ba/F3 and different mutant forms were analyzed. The proliferation of Ba/F3 wild type (WT) cells is dependent of interleukin-3 (IL-3). These cells were cultivated with 10% WEHI.
The WT and the different mutants were stained with PI and cell cycle distribution was analyzed by flow cytometry.

[4] = test system: FLT3-ITD and its KD mutants vs KIT; settings: Smith, Lasater et al. 2014; cited from earlier work
[5] = test system: MV4-11 cells; settings: xenograft mouse model; Zimmerman, Turner et al. 2013; cited from earlier work

Cc1cc(NC(=O)Nc2ccc3[nH]c(C(=O)c4cc5cc(O)ccc5[nH]4)cc3c2)no1 [46d, 1-(2-(5-Hydroxy-1H-indol-2-carbonyl)-1H-indol-5-yl)-3-(5-methylisoxazol-3-yl) urea]
melting point: 280.6 to 281.5 °C

CC(C)(C)c1cc(NC(=O)Nc2ccc3[nH]c(C(=O)c4cc5cc(O)ccc5[nH]4)cc3c2)ns1 [46c, 1-(5-tert-Butylisothiazol-3-yl)-3-(2-(5-hydroxy-1H-indol-2-carbonyl)-1H-indol-5-yl) urea]
melting point: 295.6 °C

CC(C)(C)c1cc(NC(=O)Nc2ccc3oc(C(=O)c4cc5cc(O)ccc5[nH]4)cc3c2)no1 [Marbotinib, 1-(5-(tert-butyl)isoxazol-3-yl)-3-(2-(5-hydroxy-1H-indole-2-carbonyl)benzofuran-5-yl)urea]
effect in proliferation assay ([1]; FLT3-ITD-positive MV4-11 cells): most potent
inhibition at 0.001 µM ([1]; Homo sapiens, MV4-11, given once at 1 nM): ~80%
subG1 fraction [2]: increase the subG1 fraction most strongly

CC(C)(C)c1nnc(NC(=O)Nc2ccc3[nH]c(C(=O)c4cc5cc(O)ccc5[nH]4)cc3c2)s1 [46b, 1-(5-tert-Butyl-1,3,4-thiadiazol-2-yl)-3-(2-(5-hydroxy-1H-indole-2-carbonyl)-1H-indol-5-yl)urea]
melting point: 235 °C

CC1(COc2ccc3c(c2)ncn3-c2ccc3cccc(N4CCC(N)CC4)c3n2)COC1 [Crenolanib, reference compound]
potency against MV4-11 cells (comparison) [2]: less potent than AC220
subG1 fraction / cell cycle distribution [3]: changes in cell cycle distribution
potency on FLT3-ITD and its KD mutants relative to KIT [4]: about 100 fold
outgrowth of MV4-11 cells [5]: delayed the outgrowth
